# From the supplement of paper PMC8728848
# The list shows a part of the results.
# B1: Clec2 (Mus musculus), Q9JL99 (protein)
# chain: MQDEDGYITLNIKPRKQALSSAEPASSWWRVMALVLLISSMGLVVGLVALGIMSVTQQKYLLAEKENLSATLQQLAKKFCQELIRQSEIKTKSTFEHKCSPCATKWRYHGDSCYGFFRRNLTWEESKQYCTEQNATLVKTASQSTLDYIAERITSVRWIGLSRQNSKKDWMWEDSSVLRKNGINLSGNTEENMNCAYLHNGKIHPASCKERHYLICERNAGMTRVDQLL
# Legend:
# Experiment in all cases: glycan array binding signal (z-score within array); higher = stronger binding
# Settings in all cases: glycan notation: IUPAC condensed, linker removed
# Neu5Ac(a2-3)GalNAc = molecular target: Neu5Ac(a2-3)GalNAc
# Method in brief: (§1)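 Glycan array data came from 3228 arrays in the Consortium for Functional Glycomics database, and only arrays with an available protein sequence were kept. Glycan names were put into IUPAC-condensed notation, and columns mapping to the same glycan were averaged. The binding signal is a within-array Z-score, averaged across arrays of one protein sequence run at different concentrations or buffers and across linkers. A negative Z-score can be read as non-binding.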
# [1] = molecular target: Neu5Ac(a2-3)GalNAc(b1-4)GlcNAc
# Method in brief: as §1
# [2] = molecular target: Neu5Ac(a2-3)[GalNAc(b1-4)]Gal(b1-4)Glc
# Method in brief: as §1
# [3] = molecular target: Neu5Ac(a2-3)[GalNAc(b1-4)]Gal(b1-4)GlcNAc
# Method in brief: as §1
# [4] = molecular target: Neu5Ac(a2-3)[GalNAc(b1-4)]Gal(b1-4)GlcNAc(b1-3)GalNAc
# Method in brief: as §1
# [5] = molecular target: Neu5Ac(a2-3)[Neu5Ac(a2-6)]GalNAc
# Method in brief: as §1
# Neu5Ac(a2-6)Gal = molecular target: Neu5Ac(a2-6)Gal
# Method in brief: as §1
# [6] = molecular target: Neu5Ac(a2-6)Gal(b1-3)GlcNAc(b1-3)[Gal(b1-4)GlcNAc(b1-6)]Gal(b1-4)Glc
# Method in brief: as §1
# Neu5Ac(a2-6)Gal(b1-4)Glc = molecular target: Neu5Ac(a2-6)Gal(b1-4)Glc
# Method in brief: as §1
# [7] = molecular target: Neu5Ac(a2-6)Gal(b1-4)GlcNAc
# Method in brief: as §1
# [8] = molecular target: Neu5Ac(a2-6)Gal(b1-4)GlcNAc(b1-2)Man
# Method in brief: as §1
# [9] = molecular target: Neu5Ac(a2-6)Gal(b1-4)GlcNAc(b1-2)Man(a1-3)Man(b1-4)GlcNAc(b1-4)GlcNAc
# Method in brief: as §1
# [10] = molecular target: Neu5Ac(a2-6)Gal(b1-4)GlcNAc(b1-2)Man(a1-3)[Gal(b1-4)GlcNAc(b1-2)Man(a1-6)]Man(b1-4)GlcNAc(b1-4)GlcNAc
# Method in brief: as §1
# [11] = molecular target: Neu5Ac(a2-6)Gal(b1-4)GlcNAc(b1-2)Man(a1-3)[GlcNAc(b1-2)Man(a1-6)]Man(b1-4)GlcNAc(b1-4)GlcNAc
# Method in brief: as §1
# [12] = molecular target: Neu5Ac(a2-6)Gal(b1-4)GlcNAc(b1-2)Man(a1-3)[GlcNAc(b1-4)][Neu5Ac(a2-6)Gal(b1-4)GlcNAc(b1-2)Man(a1-6)]Man(b1-4)GlcNAc(b1-4)GlcNAc
# Method in brief: as §1
# [13] = molecular target: Neu5Ac(a2-6)Gal(b1-4)GlcNAc(b1-2)Man(a1-3)[Man(a1-6)]Man(b1-4)GlcNAc(b1-4)GlcNAc
# Method in brief: as §1
# [14] = molecular target: Neu5Ac(a2-6)Gal(b1-4)GlcNAc(b1-2)Man(a1-3)[Neu5Ac(a2-3)Gal(b1-4)GlcNAc(b1-2)Man(a1-6)]Man(b1-4)GlcNAc(b1-4)GlcNAc
# Method in brief: as §1
# [15] = molecular target: Neu5Ac(a2-6)Gal(b1-4)GlcNAc(b1-2)Man(a1-3)[Neu5Ac(a2-6)Gal(b1-4)GlcNAc(b1-2)Man(a1-6)]Man(b1-4)GlcNAc(b1-4)GlcNAc
# Method in brief: as §1
# [16] = molecular target: Neu5Ac(a2-6)Gal(b1-4)GlcNAc(b1-2)Man(a1-3)[Neu5Ac(a2-6)Gal(b1-4)GlcNAc(b1-2)Man(a1-6)]Man(b1-4)GlcNAc(b1-4)[Fuc(a1-6)]GlcNAc
# Method in brief: as §1
# [17] = molecular target: Neu5Ac(a2-6)Gal(b1-4)GlcNAc(b1-2)Man(a1-6)Man(b1-4)GlcNAc(b1-4)GlcNAc
# Method in brief: as §1
# [18] = molecular target: Neu5Ac(a2-6)Gal(b1-4)GlcNAc(b1-2)Man(a1-6)[Gal(b1-4)GlcNAc(b1-2)Man(a1-3)]Man(b1-4)GlcNAc(b1-4)GlcNAc
# Method in brief: as §1
# [19] = molecular target: Neu5Ac(a2-6)Gal(b1-4)GlcNAc(b1-2)Man(a1-6)[GlcNAc(b1-2)Man(a1-3)]Man(b1-4)GlcNAc(b1-4)GlcNAc
# Method in brief: as §1
# [20] = molecular target: Neu5Ac(a2-6)Gal(b1-4)GlcNAc(b1-2)Man(a1-6)[Man(a1-3)]Man(b1-4)GlcNAc(b1-4)GlcNAc
# Method in brief: as §1
# [21] = molecular target: Neu5Ac(a2-6)Gal(b1-4)GlcNAc(b1-2)[Neu5Ac(a2-6)Gal(b1-4)GlcNAc(b1-4)]Man(a1-3)[GlcNAc(b1-4)][Neu5Ac(a2-6)Gal(b1-4)GlcNAc(b1-2)[Neu5Ac(a2-6)Gal(b1-4)GlcNAc(b1-6)]Man(a1-6)]Man(b1-4)GlcNAc(b1-4)GlcNAc
# Method in brief: as §1
# [22] = molecular target: Neu5Ac(a2-6)Gal(b1-4)GlcNAc(b1-2)[Neu5Ac(a2-6)Gal(b1-4)GlcNAc(b1-4)]Man(a1-3)[GlcNAc(b1-4)][Neu5Ac(a2-6)Gal(b1-4)GlcNAc(b1-4)Man(a1-6)]Man(b1-4)GlcNAc(b1-4)GlcNAc
# Method in brief: as §1
# [23] = molecular target: Neu5Ac(a2-6)Gal(b1-4)GlcNAc(b1-2)[Neu5Ac(a2-6)Gal(b1-4)GlcNAc(b1-6)]Man(a1-6)[Neu5Ac(a2-6)Gal(b1-4)GlcNAc(b1-2)Man(a1-3)][GlcNAc(b1-4)]Man(b1-4)GlcNAc(b1-4)GlcNAc
# Method in brief: as §1
# [24] = molecular target: Neu5Ac(a2-6)Gal(b1-4)GlcNAc(b1-3)Gal(b1-3)GlcNAc
# Method in brief: as §1
# [25] = molecular target: Neu5Ac(a2-6)Gal(b1-4)GlcNAc(b1-3)Gal(b1-4)GlcNAc
# Method in brief: as §1
# [26] = molecular target: Neu5Ac(a2-6)Gal(b1-4)GlcNAc(b1-3)Gal(b1-4)GlcNAc(b1-2)Man(a1-3)[Neu5Ac(a2-6)Gal(b1-4)GlcNAc(b1-3)Gal(b1-4)GlcNAc(b1-2)Man(a1-6)]GalNAc
# Method in brief: as §1
# [27] = molecular target: Neu5Ac(a2-6)Gal(b1-4)GlcNAc(b1-3)Gal(b1-4)GlcNAc(b1-3)Gal(b1-4)GlcNAc
# Method in brief: as §1
# [28] = molecular target: Neu5Ac(a2-6)Gal(b1-4)GlcNAc(b1-3)Gal(b1-4)GlcNAc(b1-3)Gal(b1-4)GlcNAc(b1-2)Man(a1-3)[Neu5Ac(a2-6)Gal(b1-4)GlcNAc(b1-3)Gal(b1-4)GlcNAc(b1-3)Gal(b1-4)GlcNAc(b1-2)Man(a1-6)]GalNAc
# Method in brief: as §1
# [29] = molecular target: Neu5Ac(a2-6)Gal(b1-4)GlcNAc(b1-3)Gal(b1-4)GlcNAc(b1-3)GalNAc
# Method in brief: as §1
# [30] = molecular target: Neu5Ac(a2-6)Gal(b1-4)GlcNAc(b1-3)Gal(b1-4)GlcNAc(b1-3)[Neu5Ac(a2-6)Gal(b1-4)GlcNAc(b1-3)Gal(b1-4)GlcNAc(b1-6)]GalNAc
# Method in brief: as §1
# [31] = molecular target: Neu5Ac(a2-6)Gal(b1-4)GlcNAc(b1-3)Gal(b1-4)GlcNAc(b1-6)[Gal(b1-3)]GalNAc
# Method in brief: as §1
# [32] = molecular target: Neu5Ac(a2-6)Gal(b1-4)GlcNAc(b1-3)Gal(b1-4)[Fuc(a1-3)]GlcNAc(b1-3)Gal(b1-4)[Fuc(a1-3)]GlcNAc
# Method in brief: as §1
# [33] = molecular target: Neu5Ac(a2-6)Gal(b1-4)GlcNAc(b1-3)GalNAc
# Method in brief: as §1
# [34] = molecular target: Neu5Ac(a2-6)Gal(b1-4)GlcNAc(b1-3)[Neu5Ac(a2-6)Gal(b1-4)GlcNAc(b1-6)]GalNAc
# Method in brief: as §1
# [35] = molecular target: Neu5Ac(a2-6)Gal(b1-4)GlcNAc(b1-6)GalNAc
# Method in brief: as §1
binder,measurement,setting,value
B1,glycan array binding signal (z-score),Neu5Ac(a2-3)GalNAc,-0.084
same,glycan array binding signal (z-score),[1],-0.365
same,glycan array binding signal (z-score),[2],-0.342
same,glycan array binding signal (z-score),[3],-0.748
same,glycan array binding signal (z-score),[4],-0.352
same,glycan array binding signal (z-score),[5],2.23
same,glycan array binding signal (z-score),Neu5Ac(a2-6)Gal,0.223
same,glycan array binding signal (z-score),[6],-0.779
same,glycan array binding signal (z-score),Neu5Ac(a2-6)Gal(b1-4)Glc,0.133
same,glycan array binding signal (z-score),[7],-0.277
same,glycan array binding signal (z-score),[8],1.49
same,glycan array binding signal (z-score),[9],-0.282
same,glycan array binding signal (z-score),[10],-0.526
same,glycan array binding signal (z-score),[11],-0.833
same,glycan array binding signal (z-score),[12],-0.774
same,glycan array binding signal (z-score),[13],-0.706
same,glycan array binding signal (z-score),[14],-0.94
same,glycan array binding signal (z-score),[15],-0.489
same,glycan array binding signal (z-score),[16],-0.567
same,glycan array binding signal (z-score),[17],-0.685
same,glycan array binding signal (z-score),[18],-0.707
same,glycan array binding signal (z-score),[19],-0.458
same,glycan array binding signal (z-score),[20],-0.867
same,glycan array binding signal (z-score),[21],-0.622
same,glycan array binding signal (z-score),[22],-0.605
same,glycan array binding signal (z-score),[23],-0.253
same,glycan array binding signal (z-score),[24],-0.457
same,glycan array binding signal (z-score),[25],-0.737
same,glycan array binding signal (z-score),[26],-0.609
same,glycan array binding signal (z-score),[27],-0.598
same,glycan array binding signal (z-score),[28],4.45
same,glycan array binding signal (z-score),[29],-0.69
same,glycan array binding signal (z-score),[30],-0.008
same,glycan array binding signal (z-score),[31],-0.808
same,glycan array binding signal (z-score),[32],-0.137
same,glycan array binding signal (z-score),[33],-0.524
same,glycan array binding signal (z-score),[34],-0.848
same,glycan array binding signal (z-score),[35],0.805
